Source: the supplement of paper PMC3334620
Over roughly 33,000 sequences, “E-score (-0.5 to 0.5)” has its median near -0.035; the highest 2% begin near 0.34. This is one part of the list.

The sequences below were run against T1, Mot3 (UniProt P54785) (assay: PBM E-score (8-mer binding enrichment) (E-score (-0.5 to 0.5)); higher = stronger / more preferred TF binding; most listed sequences are background and not binding sites). Details: protein concentration: 200 nM; construct: GST-full length.
T1 sequence: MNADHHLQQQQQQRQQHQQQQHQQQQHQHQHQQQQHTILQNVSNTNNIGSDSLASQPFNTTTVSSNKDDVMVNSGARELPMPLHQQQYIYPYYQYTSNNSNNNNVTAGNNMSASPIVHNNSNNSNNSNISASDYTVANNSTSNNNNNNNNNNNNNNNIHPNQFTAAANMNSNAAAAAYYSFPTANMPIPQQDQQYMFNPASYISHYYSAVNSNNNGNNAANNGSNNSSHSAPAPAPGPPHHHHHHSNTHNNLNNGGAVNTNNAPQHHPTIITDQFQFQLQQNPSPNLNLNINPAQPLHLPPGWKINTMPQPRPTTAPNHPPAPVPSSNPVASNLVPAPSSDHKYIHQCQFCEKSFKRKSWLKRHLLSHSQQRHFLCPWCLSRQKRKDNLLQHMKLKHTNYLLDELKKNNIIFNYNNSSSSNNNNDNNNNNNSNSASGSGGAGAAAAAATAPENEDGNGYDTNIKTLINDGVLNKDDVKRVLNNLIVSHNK
Method in brief: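 Masliner-normalised scans of fluorescent anti-GST signal were the basis for scoring. That signal came from GST-tagged yeast transcription factors applied at about 100-200 nM to double-stranded universal all-10-mer Agilent arrays on fresh or once-stripped slides. Each ungapped eight-base word, pooled with its reverse complement, received an E-score from the Universal PBM Analysis Suite.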

Sequence | PBM E-score
CAAAGGCG | 0.233
ATTGTGAA | 0.133
AGACATTA | 0.183
GAGTCTCA | -0.29
TGGGGACA | -0.0418
CTATGGCC | -0.231
TCCATAGA | -0.2
GTACACTA | 0.138
CCTGCCGA | -0.175
ATGCCAAG | -0.0387
CCAACTCG | 0.0438
ACGGGTTA | -0.11
CCCGAGGC | -0.207
CGTTGTCC | -0.0232
ACACACCC | 0.25
TGGATAAA | -0.0834
ACGTATCC | -0.129
CCCTGGAA | -0.297

Sequence | PBM E-score
AGCACGGA | 0.102
TCACAAAA | 0.0788
CTTGTGTC | 0.11
CCCGGGAC | -0.237
AGAAGACC | -0.114
CACATGGC | -0.0654
GATTAAAA | 0.0197
CCGCGTGC | 0.0666
CATACCAC | -0.015
AGGTTCAT | -0.0206
CGTAACTC | 0.0184
AGCTATCC | -0.0683
TAGTGTGA | -0.0628
AGTCGCGA | -0.17
AAGTTACA | 0.29
CTACACGC | 0.356
ACAAATGG | 0.126
CTGTACTA | 0.0598
